{"source": "PubChem BioAssay AID463173", "about": "(ICCB-Longwood Screening Facility, Harvard Medical School, 2010)", "note": "Screen size: about 52,000 compounds; about 1,700 (3.3%) were called active. Cut-off read from the data, not from the text of the source: active = survival mostly below about 52% (no sharp cut-off); inactive = mostly above about 56%. Some of the results follow.", "data": [{"test_system": "Wild type", "experiment": "growth inhibition of S. aureus wild type versus tarO mutant, primary screen, teichoic acid synthesis inhibitors, RN4220, OD600 (AID 463173)", "settings": "S. aureus RN4220 wild type/DeltatarO growth, OD600, 18 h, active compounds read low, screened at 18.75 µg/mL (by protocol)", "values": [{"smiles": "Cc1c(Cl)cccc1NC(=O)Nc1c[nH]c(=O)[nH]c1=O", "survival": "inactive: 72%"}, {"smiles": "COc1cc(OC)cc(C(=O)Nc2nc(-c3nnn(-c4ccc(C)cc4)c3C)ns2)c1", "survival": "inactive: 133%"}, {"smiles": "CCn1c(O)c(C=Nc2cccc(O)c2)sc1=S", "survival": "inactive: 115%"}, {"smiles": "CCOC(=O)C1=C(CN2CCC(C)CC2)NC(=O)NC1c1ccc(OC(C)C)cc1", "note": "(stereo not drawn)", "survival": "inactive: 78%"}, {"smiles": "O=C(Cc1ccccc1)NC1CCS(=O)(=O)C1", "note": "(stereo not drawn)", "survival": "inactive: 96%"}, {"smiles": "CSc1cccc(-n2nnc(-c3nsc(NC(=O)c4cccs4)n3)c2C)c1", "survival": "inactive: 80%"}, {"smiles": "COc1ccc(Br)cc1CNC(=O)Cn1nc(C)n2c(cc3cc(F)ccc32)c1=O", "survival": "inactive: 75%"}, {"smiles": "CCOC(=O)c1ccccc1NC(=O)CSc1nc(=O)[nH]c2c1CCCC2", "survival": "inactive: 68%"}, {"smiles": "COc1ccc(NC(=O)c2ccco2)cc1NC(=O)c1cc2ccccc2o1", "survival": "inactive: 123%"}, {"smiles": "CC(OC(=O)c1ccco1)C(=O)NC1CCCC1", "note": "(stereo not drawn)", "survival": "inactive: 110%"}, {"smiles": "COc1ccc(-n2c(C)nc3c(cnn3-c3ccc(C)c(C)c3)c2=O)cc1Cl", "survival": "inactive: 118%"}, {"smiles": "CCS(=O)(=O)N1CCCc2cc(C(=O)Nc3cc([N+](=O)[O-])ccc3C)ccc21", "survival": "inactive: 81%"}, {"smiles": "Cc1ccc(NC(=O)CN2C(=O)C(c3ccccc3)=NC23CCCCC3)cc1C", "survival": "inactive: 89%"}, {"smiles": "CCc1ccc2occ(CC(=O)N(Cc3ccccc3)C3CCS(=O)(=O)C3)c2c1", "note": "(stereo not drawn)", "survival": "inactive: 77%"}, {"smiles": "Cc1nc2ccccc2n1C1CCN(C(=O)NC2CCCCC2)CC1", "survival": "inactive: 129%"}, {"smiles": "CCN(CC)CCCNC(=O)c1cn(CC)c2ccc(S(=O)(=O)N3CCC(C)CC3)cc2c1=O", "survival": "inactive: 91%"}, {"smiles": "Cc1cc(=O)n(CC(=O)N2CCCCC2)c2c1c(C)nn2C", "survival": "inactive: 83%"}, {"smiles": "COc1ccc(Nc2nc3c(S(=O)(=O)c4ccccc4)nnn3c3ccc(Cl)cc23)cc1", "survival": "inactive: 133%"}, {"smiles": "COc1cccc(CNC(=O)Cn2c(=O)ccc3cc(S(=O)(=O)N4CCCC4)ccc32)c1", "survival": "inactive: 73%"}, {"smiles": "CCc1ccc(S(=O)(=O)c2nnn3c2nc(N(C)Cc2ccccc2)c2cc(Cl)ccc23)cc1", "survival": "inactive: 94%"}, {"smiles": "CN(C1CCCCC1)S(=O)(=O)c1ccc2c(c1)c(=O)c(C(=O)N1CCN(c3ccccc3)CC1)cn2C", "survival": "inactive: 82%"}, {"smiles": "O=C(O)c1ccc(NC(=O)c2ccc(Cl)c(S(=O)(=O)N3CCCCCC3)c2)cc1", "survival": "inactive: 137%"}, {"smiles": "COC(=O)c1ccc(NC(=O)C(C)Sc2nc(=O)cc(N)n2CCc2ccccc2)cc1", "note": "(stereo not drawn)", "survival": "inactive: 124%"}, {"smiles": "CCC(=O)Nn1cnc2c(c1=O)C1(CCCCC1)Cc1ccccc1-2", "survival": "inactive: 113%"}, {"smiles": "O=S(=O)(NCCS(=O)(=O)N1CCN(c2ccccc2)CC1)c1ccccc1", "survival": "inactive: 81%"}, {"smiles": "Cc1nc2c3ccccc3nc(NNC(=O)CCC(=O)O)n2n1", "survival": "inactive: 83%"}, {"smiles": "COc1ccc(CCNC(=O)c2ccc3c(c2)nc(C)n3-c2ccc(Br)cc2)cc1OC", "survival": "inactive: 53%"}, {"smiles": "Cc1ccc(NC(=O)CN2C(=O)CCSc3ccccc32)c(C)c1", "survival": "inactive: 74%"}, {"smiles": "O=C(Nc1ccc(Cl)cc1Cl)c1cc(S(=O)(=O)NCc2ccc3c(c2)OCO3)ccc1F", "survival": "inactive: 87%"}, {"smiles": "Cc1ccc(Cn2c(CO)cnc2SCc2ccc(F)cc2)cc1", "survival": "inactive: 120%"}, {"smiles": "Cn1c(=O)c2c(nc3n2Cc2c(Cl)cccc2N3CCNC(=O)C2CCC2)n(C)c1=O", "survival": "inactive: 109%"}, {"smiles": "Cc1ccccc1NC(=O)c1cc2c([nH]c1=O)CC(C)(C)CC2=O", "survival": "inactive: 65%"}, {"smiles": "N#CC1=C(N)OC2=C(C(=O)CCC2)C1c1ccoc1", "note": "(stereo not drawn)", "survival": "inactive: 106%"}, {"smiles": "COc1ccc(-c2cc(C(=O)Nc3cc(C(F)(F)F)ccc3Cl)no2)cc1", "survival": "inactive: 87%"}, {"smiles": "COc1ccccc1Cn1cc(C(=O)c2ccccc2)c(=O)c2cc(OC)c(OC)cc21", "survival": "active: 10%"}, {"smiles": "Cc1nn(CCC(=O)Nc2ccc(Cl)cc2)c(C)c1S(=O)(=O)N1CCCCC1", "survival": "inactive: 124%"}, {"smiles": "CN(C)c1ccc(CNC(=O)C2CCN(c3nnc(-n4cccc4)s3)CC2)cc1", "survival": "inactive: 45%"}, {"smiles": "CCOc1ccc(C(=O)Nc2ccc(-c3cc4ccccc4oc3=O)cc2)cc1Br", "survival": "inactive: 75%"}, {"smiles": "Cc1ccc(-n2ncc3c(=O)n(Cc4cccc(Cl)c4)cnc32)cc1C", "survival": "inactive: 88%"}, {"smiles": "Cc1ccc(CSc2nc3cccnc3n2Cc2ccc(C(=O)NC3CC3)cc2)cc1", "survival": "inactive: 63%"}, {"smiles": "O=C(NCc1ccccc1)c1cccn1-c1nnc(N2CCCCC2)s1", "survival": "inactive: 79%"}, {"smiles": "COc1cc(OC)c(NC(=O)C2=C(C)C(=O)OC23CCN(C(C)=O)CC3)cc1Cl", "survival": "inactive: 63%"}, {"smiles": "CCc1cccc(NC(=O)C2CCN(S(=O)(=O)c3ccc(Br)s3)CC2)c1", "survival": "inactive: 66%"}, {"smiles": "O=C1Nc2ccc(S(=O)(=O)Nc3ccccc3)c3cccc1c23", "survival": "inactive: 106%"}, {"smiles": "CCSc1nnc(C2CCCN(Cc3cccnc3)C2)n1C(C)C", "note": "(stereo not drawn)", "survival": "inactive: 121%"}, {"smiles": "CCOc1ccccc1CNC(=O)c1cnn(-c2ccc(C)cc2)c1-n1cccc1", "survival": "active: 10%"}, {"smiles": "Cc1ccc(C)c(NC(=O)Nc2cc3c(cc2N2CCCCC2)n(C)c(=O)n3C)c1", "survival": "inactive: 89%"}, {"smiles": "COc1ccc(Cn2c(C(=O)O)c(CNCc3ccco3)c3ccc(C)cc32)cc1", "survival": "inactive: 59%"}, {"smiles": "Cc1ccc(NC(=O)Cn2cnc3c(oc4ccccc43)c2=O)cc1Cl", "survival": "inactive: 88%"}, {"smiles": "COc1ccc(NC(=O)CCCOc2cc(=O)n(C)c3ccccc23)c(OC)c1", "survival": "inactive: 155%"}, {"smiles": "COCCNC(=O)CSc1c(C)cnc2c1c(=O)n(C)c(=O)n2C", "survival": "inactive: 87%"}, {"smiles": "CC1CCC(=O)C(C2(O)C(=O)Nc3ccccc32)C1", "note": "(stereo not drawn)", "survival": "inactive: 110%"}, {"smiles": "CCCn1c2ccccc2c2cnn(CC(=O)NCCc3ccc(S(N)(=O)=O)cc3)c(=O)c21", "survival": "inactive: 134%"}, {"smiles": "Cn1c(NCc2cccc(Cl)c2)nc2ccccc21", "survival": "inactive: 106%"}, {"smiles": "CCN(C(=O)c1ccc(C(=O)N(CC)c2ccccc2C)cc1)c1ccccc1C", "survival": "inactive: 71%"}, {"smiles": "CCOc1ccc(NC(=O)c2cc3cc4ccc(C)cc4nc3o2)cc1", "survival": "inactive: 79%"}, {"smiles": "C=Cc1ccc(CN2C(=O)N(c3ccc(C)c(C)c3)S(=O)(=O)c3ccccc32)cc1", "survival": "inactive: 71%"}, {"smiles": "COc1ccccc1C(=O)Nc1nnc(SCc2cc(=O)c3ccccc3[nH]2)s1", "survival": "inactive: 72%"}]}]}
